Test results as given in PubChem BioAssay AID624202 (National Center for Advancing Translational Sciences (NCATS), 2012).
Where “and” joins values, the source holds several entries; their conditions need not be identical. Identical values can stand only once. Screen size: about 380,000 compounds; about 4,000 (1.1%) were called active. Inconclusive results, whose numbers are uncertain, are shown with a selection of clear calls. Calls come from the whole dose curve; as a rule, active = well fitted activation curve with a large enough effect; inconclusive = small, poorly fitted or top-dose-only effect; inactive = no such curve, though single readings can be large or run the other way. A potency beside an inconclusive call is a rough fit, not a confirmed value.

Test: qHTS Assay to Identify Small Molecule Activators of BRCA1 Expression; note: nearly all actives have a fitted effect of over 80% in size
Settings: MCF7-BRCA1-FFLuc reporter, luminescence, 48 h; activation: at 46.1 µM (top of the series), scaled: vehicle 0%, 10 µM genistein 100% unless noted
Procedure, shortened: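 MCF7 cells carrying a BRCA1-firefly luciferase reporter (2000 cells/well, phenol-red free MEM) were attached for 2 h at 37 °C, then given compounds for 48 h. Luminescence was read 15 min after luciferase reagent; activity normalized to genistein (10 microM) and DMSO.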
Potency is the fitted concentration of half-maximal effect; tags give direction and shape of the fitted curve.

| Structure (SMILES) | activation | Potency |
| --- | --- | --- |
| COc1ccc(-n2ncc3c(N4CCC(C)CC4)ncnc32)cc1 | inconclusive: 12.6% [activator] |  |
| CCN1CCN(CCOc2ccc(Cl)cc2)CC1 | inactive: 2.68% |  |
| O=C(Nc1nc2ccc(F)cc2s1)c1cccs1 |  | inconclusive: 3.98 µM [activator, partial curve, poor fit] |
| CC(=O)c1ccc(-c2nc3ccccc3n2C)o1 |  | inconclusive: 14.1 µM [activator, partial curve, poor fit] and inconclusive: 12.6 µM [activator, partial curve, poor fit] |
| C(=N\Nc1ccccn1)/c1ccc2c(c1)OCCO2 |  | inconclusive: 1.58 µM [activator, partial curve, poor fit] |
| O=C(Cc1ccccc1)n1nc(-c2ccco2)nc1SCc1ccccc1 |  | active: 11.2 µM |
| COc1cccc2cc(-c3cn4ccc(C)cc4n3)c(=O)oc12 |  | active: 7.08 µM |
| O=C(Nc1ccc2c(c1)OCCO2)C1CC(c2ccccc2Cl)=NO1 (centres undefined) |  | inconclusive: 10 µM [activator, partial curve, poor fit] |
| CCOC(=O)C1(Cc2cccc(OC)c2)CCCN(C(=O)CCN2CCCO2)C1 (centres undefined) |  | active: 3.98 µM |
| CCN(C(=O)c1cccs1)c1nc(-c2ccc(OC)cc2)cs1 |  | active: 12.6 µM |
| CCOC(=O)CSC1=C(C#N)C(c2sccc2C)C(C(C)=O)=C(C)N1 (centres undefined) | inactive: -17.5% |  |
| CN(C)c1cccc(-c2nnc(SCCCC#N)o2)c1 |  | inconclusive: 2.51 µM [activator, partial curve, poor fit] |
| COc1ccc(C2NN=C(c3ccc(C)cc3)S2)cc1 (centres undefined) |  | active: 1.78 µM |
| CSCC(=O)N1CCc2ccc(NC(=O)c3ccccc3Cl)cc2C1 |  | active: 10 µM |
| COc1ccc(/C=C2/SC(=S)N(NS(=O)(=O)c3ccccc3)C2=O)cc1 | inactive: -1.08% |  |
| COc1ccc(-c2ccc(SC)nn2)cc1 | inconclusive: -44.7% [activator] |  |
| CCCCCCC#Cc1ccc2c(c1)COc1c3ccccc3nn1-2 |  | inconclusive: 2.51 µM [activator, partial curve, poor fit] |
| CC(=O)Nc1nc(COc2ccccc2)cs1 |  | active: 10 µM |
| O=C(Nc1cccc(F)c1)c1ccc(-c2cccnc2)c2ccoc12 |  | inconclusive: 2 µM [activator, full curve, poor fit] |
| C/C(=N/NC(=O)c1cccc(N2CCCC2=O)c1)c1ccncc1 |  | active: 8.91 µM |
| Cc1nnc(SCc2ccccc2)nc1-c1ccccc1 |  | active: 11.2 µM |
| O=C(CCOc1ccccc1F)N1CCN(c2ccccc2O)CC1 |  | active: 11.2 µM |
| O=C(OCC(=O)N1CCOCC1)c1ccccc1O |  | inconclusive: 25.1 µM [activator, partial curve, poor fit] |
| Cc1cc(C)n2ncc(/C(N)=N/OC(=O)c3ccccc3F)c2n1 |  | inconclusive: 4.47 µM [activator, full curve, poor fit] |
| CCc1oc2ccccc2c1C(=O)c1cc(Br)c(O)c(Br)c1 | inactive: 6.07% |  |

| Structure (SMILES) | activation | Potency |
| --- | --- | --- |
| CCOC(=O)c1sc2nc(-c3cccnc3)ccc2c1N |  | inconclusive: 1 µM [activator, full curve, poor fit] |
| O=C(CCC1CCCC1)N1CCN(C(=O)c2ccco2)CC1 | inactive: 2.29% |  |
| CC(=O)Nc1ccc(N/C=C/C(=O)c2ccccc2)cc1 |  | inconclusive: 5.01 µM [activator, full curve, poor fit] |
| COc1ccc(S(=O)(=O)NCc2ccncc2)cc1NC(=O)c1ccccc1 | inactive: -48.2% |  |
| Cc1ccc(CNc2nc(C)cs2)cc1 |  | inconclusive: 3.55 µM [activator, full curve, poor fit] |
| N#CC(C(=O)c1ccccc1)=C1SCCS1 |  | inconclusive: 14.1 µM [activator, partial curve, poor fit] |
| O=c1c2ccccc2nc(-c2ccccc2)n1Cc1ccccc1 |  | inconclusive: 20 µM [activator, partial curve, poor fit] |
| CCOc1ccc(NC(=O)C2CC3CCC2C3)cc1 (centres undefined) |  | inconclusive: 10 µM [activator, partial curve, poor fit] |
| COc1cccc(NC(=O)CSc2nnc(-c3ccc(C)cc3)o2)c1 |  | inconclusive: 22.4 µM [activator, single point] |
| COc1cccc(NC(=O)c2cc3ccccc3o/c2=N\O)c1 |  | inconclusive: 0.501 µM [activator, full curve, poor fit] |
| CC(C)(C)c1csc(NC(=O)c2ccc(Cl)s2)n1 | inactive: -20.1% |  |
| Cc1cc(C(=O)Nc2sc(C)c(-c3ccc(F)cc3)c2C(N)=O)no1 |  | inconclusive: 2.51 µM [activator, full curve, poor fit] |
| CC1CCN(c2ccc(-c3cccs3)nn2)CC1 | inconclusive: -74.1% [activator] |  |
| CC(C)COc1ccc(-c2nnc(-c3ccco3)o2)cc1 | inconclusive: -55.2% [activator] |  |
| CC1CCc2c(sc3nc4n(c(=O)c23)CCS4)C1 (centres undefined) |  | inconclusive: 11.2 µM [activator, partial curve, poor fit] |
| Cc1ccc(C(=O)Nc2ccc3nccnc3c2)cc1 |  | inconclusive: 1.26 µM [activator, partial curve, poor fit] |
| COc1ccc(CCNC(=O)C/C(C)=N/NC(=O)C2CCCCC2)cc1OC | inactive: 13.7% |  |
| O=C(CSc1nnnn1-c1ccc(Cl)cc1)NC(=O)Nc1ccc2c(c1)OCCO2 |  | inconclusive: 11.2 µM [activator, partial curve, poor fit] |
| CCOC(=O)c1cnc(Nc2nc3ccccc3o2)nc1CSc1ncccn1 |  | inconclusive: 10 µM [activator, partial curve, poor fit] |
| O=C(Nc1ccc([N+](=O)[O-])cc1)c1cccc([N+](=O)[O-])c1 | inactive: 0.305% |  |
| COc1ccc(C2NN=C(c3ccc(C)cc3)S2)cc1OC (centres undefined) |  | inconclusive: 2.24 µM [activator, partial curve, poor fit] |
| CSc1ccc(/C=N/Nc2cccc(C(=O)O)c2)cc1 | inconclusive: -82.5% [activator] |  |
| C/C(=N\Nc1nc(N)cc(Cl)n1)c1cccc(N)c1 |  | inconclusive: 15.8 µM [activator, single point] |
| Clc1ccc(C2Nc3cccc4cccc(c34)N2)c(Cl)c1 | inactive: -27.5% |  |
| Clc1ccc(-n2ncc3c(NCc4ccco4)ncnc32)cc1 | inconclusive: 84.9% [activator] [at 1.84 µM, scaled: vehicle 0%, 10 µM genistein 100%] |  |

| Structure (SMILES) | activation | Potency |
| --- | --- | --- |
| COc1ccc(-c2nc3n(c2Br)CCC3)cc1 |  | inconclusive: 7.94 µM [activator, partial curve, poor fit] |
| C(/C=C/c1ccco1)=N/N1CCN(c2ccccc2)CC1 |  | active: 10 µM |
| Nc1oc2ccccc2c(=O)c1-c1ccc2c(c1)OCO2 |  | inconclusive: 15.8 µM [activator, partial curve, poor fit] |
| Cc1ccc(NC(=O)c2cnccn2)nc1 |  | inconclusive: 2.51 µM [activator, partial curve, poor fit] |
| N/C(=N\OC(=O)COc1ccccc1)c1cccnc1 | inactive: -20.4% |  |
| CCOc1cc(C(=O)N=c2sccn2C)ccc1OC(F)F |  | inconclusive: 15.8 µM [activator, single point] |
| COc1cccc(Nc2nc(N)c([N+](=O)[O-])c(NCc3ccco3)n2)c1 | inactive: 0.078% |  |
| Cc1ccc(-c2nc3sc4c(c3c(=O)n2N)CCCC4)cc1 |  | inconclusive: 0.631 µM [activator, full curve, poor fit] |
| Cc1nn(-c2ccc(Cl)nn2)c(=O)c2ccccc12 |  | active: 11.2 µM |
| CC(=O)N(C)c1ccc(NC(=O)Cc2cccs2)cc1 |  | inconclusive: 7.94 µM [activator, partial curve, poor fit] |
| O=C(c1cc(-c2ccc(O)cc2)on1)N1CCOCC1 |  | inconclusive: 1.58 µM [activator, partial curve, poor fit] |
| Cc1ccc2c(COC(=O)c3ccccc3Cl)cc(=O)oc2c1 |  | inconclusive: 17.8 µM [activator, single point] |
| COc1ccc(-c2coc3cc(OC)cc(O)c3c2=O)cc1 |  | inconclusive: 2.51 µM [activator, full curve, poor fit] |
| CC(=C/c1ccccc1)/C=C1/SC(N2CCOCC2)=NC1=O |  | active: 11.2 µM |
| CN(C)c1ccc(-c2nnc(-c3cccs3)o2)cc1 |  | inconclusive: 0.631 µM [activator, full curve, poor fit] |
| Nc1c(C(=O)Nc2ccc3c(c2)OCCO3)nnn1Cc1ccccc1 |  | active: 4.47 µM |
| O=c1c2ccccc2oc2cc(-c3ccc(CN4CCOCC4)cc3)ccc12 |  | inconclusive: 2.51 µM [activator, full curve, poor fit] |
| O=C(/C=C/c1cccs1)Nc1scc(-c2ccccc2)c1C(=O)O |  | inconclusive: 0.501 µM [activator, full curve, poor fit] |
| CC(=O)N1CCN(C(=O)CSc2ncnc3sc(C)c(C)c23)CC1 | inactive: -51% |  |
| O=C(COc1ccccc1Cl)Nc1ccc2c(c1)OCCO2 | inactive: 0.327% |  |
| CCCCSc1ccc2nc(-c3ccc(C#N)cc3)cn2c1 |  | inconclusive: 7.08 µM [activator, partial curve, poor fit] |
| COc1cccc2c1C(=O)c1ccc3ccccc3c1C2=O | inactive: 12.1% |  |
| COc1ccc2[nH]c(-c3ccccc3)cc2c1 |  | active: 3.55 µM |
| CCOC(=O)C1CCN(C(=O)/C=C/c2ccc(OC)cc2)CC1 |  | inconclusive: 0.355 µM [activator, full curve, poor fit] |
